Experimental data reported in PubChem BioAssay AID488969 (Vanderbilt High Throughput Screening Facility, 2010).
In all, about 110,000 compounds were measured (“z-score”: median about -0.1, highest 2% from about 2 on). The list shows a part of the results. Active and inactive are the calls of the source.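 Rule for the calls: active = z-score in the third read window above 3 or below -3; inactive = the rest.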

Molecular target: Metabotropic glutamate receptor 8 (Rattus norvegicus) (UniProt P70579)
Assay: rat mGluR8 modulators via GIRK flux, primary screen, cell-based, thallium flux, HTS (AID 488969)
Details: HEK293 rat mGluR8, GIRK (G protein-gated inwardly rectifying potassium channel) thallium flux, FluoZin2; at 10 µM; stronger effect = higher value; submaximal glutamate (EC20) added with thallium

Chain of UniProt P70579 (P70579 whole entry, looked up): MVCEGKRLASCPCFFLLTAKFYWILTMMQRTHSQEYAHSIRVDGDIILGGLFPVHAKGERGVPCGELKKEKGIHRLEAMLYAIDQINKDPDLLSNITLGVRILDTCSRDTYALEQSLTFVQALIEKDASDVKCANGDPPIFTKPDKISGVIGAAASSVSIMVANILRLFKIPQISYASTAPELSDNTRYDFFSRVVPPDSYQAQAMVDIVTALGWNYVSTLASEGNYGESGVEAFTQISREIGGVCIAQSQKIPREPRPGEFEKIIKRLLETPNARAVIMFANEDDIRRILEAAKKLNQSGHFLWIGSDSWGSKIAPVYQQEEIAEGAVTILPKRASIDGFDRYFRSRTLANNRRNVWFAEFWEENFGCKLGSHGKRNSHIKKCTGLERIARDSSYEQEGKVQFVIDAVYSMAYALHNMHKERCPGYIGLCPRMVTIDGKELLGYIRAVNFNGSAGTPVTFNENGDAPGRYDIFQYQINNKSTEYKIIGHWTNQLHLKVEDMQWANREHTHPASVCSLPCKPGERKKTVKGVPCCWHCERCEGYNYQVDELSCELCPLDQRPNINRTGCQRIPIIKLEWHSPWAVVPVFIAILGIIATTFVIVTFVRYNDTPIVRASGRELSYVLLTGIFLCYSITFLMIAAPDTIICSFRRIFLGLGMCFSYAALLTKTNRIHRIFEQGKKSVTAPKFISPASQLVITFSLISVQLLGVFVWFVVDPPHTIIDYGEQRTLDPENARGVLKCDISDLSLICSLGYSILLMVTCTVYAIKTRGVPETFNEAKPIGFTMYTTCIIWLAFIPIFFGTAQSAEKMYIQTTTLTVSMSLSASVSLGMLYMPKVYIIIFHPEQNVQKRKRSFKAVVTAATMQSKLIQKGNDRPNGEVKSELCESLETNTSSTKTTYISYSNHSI

Compound | z-score
CC/C(=N/NS(=O)(=O)c1ccc(Cl)cc1)c1ccc(O)cc1 | -0.202
COC(=O)C1=C(C)Nc2nnnn2C1c1cccs1 (stereo unspecified) | -0.544
Cc1ccc(SC(C)C(=O)Nc2cccnc2)cc1 (stereo unspecified) | -0.696
O=C(/C=C/c1ccccc1)NC(NC(=S)Nc1ccc(Cl)cc1Cl)C(Cl)(Cl)Cl (stereo unspecified) | 0.717
C=CCSC1=C(C#N)C(c2cccc(OC)c2)CC(=O)N1 (stereo unspecified) | -0.177
CS(=O)(=O)Nc1ccc(S(=O)(=O)Nc2nccs2)cc1 | 0.21
O=C1c2ccccc2C(=O)N1CCc1ccccn1 | 0.415
O=c1ccnc(SCn2nnc3ccccc3c2=O)[nH]1 | -0.192
COc1ccc(C(C)(C)C)cc1NC(=O)Nc1ccc2c(c1)OCO2 | -0.106
COc1ccc(NS(=O)(=O)c2cccc(NC(=O)c3ccc(S(=O)(=O)N4CCCCCC4)cc3)c2)cc1 | -1.3
COc1cc(O)oc1C=Nc1ccc(Oc2ccccc2)cc1 | 0.11
O=C(c1ccccc1)c1ccc(OCCn2cnc3ccccc3c2=O)cc1 | -1.13
CC(C)(C)NC(=O)C(c1ccncc1)N(C(=O)c1csnn1)c1ccccc1 (stereo unspecified) | active: 6.21
CCC/C(O)=C1\C(=O)CC(c2ccccc2)CC1=NC (stereo unspecified) | -0.23
COc1ccc(-c2noc(CSc3ccc(C)cc3)n2)cc1 | -0.756
O=C(CSCC(=O)N1CCN(c2ccccc2)CC1)Nc1nc(-c2ccc(Cl)s2)cs1 | 0.16
N#CNC1=NCN(Cc2ccccc2)CN1 | 0.381
CN1CCC2(CC1)NC(=O)NC2=O | 0.434
Cc1cc2cc(C)c3nnc(SCC(=O)N4CCCc5ccccc54)n3c2cc1C | -0.363

Compound | z-score
C(=C\c1ccccc1)/C=N/Nc1nncc(-c2ccccc2)n1 | -0.159
Cc1cc(NC(=O)COc2cccc3cccnc23)no1 | 0.0409
CC(=O)n1c2ccccc2c2nc(NC(C)C)sc21 | -0.00924
COCC(C)NCC(=O)NC(C)CCc1ccccc1 (stereo unspecified) | -0.158
COc1ccc(C2CC(c3ccccc3)=NN2C(=O)COC(=O)c2ccc(Cl)nc2)cc1 (stereo unspecified) | -0.13
CCOc1ccccc1NC(=O)C1C2C=CC(O2)C1C(=O)O (stereo unspecified) | 0.111
COC(=O)C1CSC(C(=O)OC)N1C(=O)Nc1ccc(Cl)cc1 (stereo unspecified) | -0.0983
c1ccc(-c2nnc(SCc3nnc(-c4cccs4)o3)o2)cc1 | 0.0584
Cc1ncc(CSc2nnnn2-c2ccccc2)c(N)n1 | -0.102
Cc1ccc(-c2csc3ncnc(-n4nc(C)cc4N)c23)cc1 | 0.274
CN(C)/C=C/c1c(C#N)c(=O)ncn1Cc1ccccc1 | -0.0983
COc1ccc(OC)c(C(=O)CN2C(=O)NC(C)(c3ccccc3)C2=O)c1 (stereo unspecified) | -0.0909
Cc1ccc(NC(=O)CCC(=O)NNC(=O)COc2cccc3ccccc23)c(C)c1 | -0.075
CC(=O)c1ccc(-c2nc3ccccc3n2C)o1 | 0.227
CCc1ccc(Nc2ncc3c(n2)CC(c2ccco2)CC3=O)cc1 (stereo unspecified) | 0.0155
O=C1CC(SCCO)C(=O)N1c1ccccc1 (stereo unspecified) | -0.172
CCSc1nc(-c2ccc(OC)cc2)n(-c2nc3ccccc3s2)n1 | 0.0304
CCOC(=O)c1nnn(-c2nonc2N)c1COc1c(C=O)cccc1OC | -0.306
CC(NC(=O)c1ccnc(C(C)(C)C)c1)c1ccccc1 (stereo unspecified) | 0.264

Compound | z-score
CCC(O)CNc1nc(-n2nc(C)cc2C)nc2sc3c(c12)CC(C)(C)OC3 (stereo unspecified) | -0.647
O=C1CCCc2c1nc(-c1cccc(Cl)c1)n2O | 0.253
COc1ccc(/C=N/Nc2nc3ccccc3o2)cc1O | -0.22
Cc1ccc(C(=O)C2C(c3cccs3)NC(=O)NC2(O)C(F)(F)F)cc1 (stereo unspecified) | 2.58
COCCCNC(=O)CN(C1CCCCC1)S(=O)(=O)c1ccc(C)cc1 | -0.241
COC(=O)COc1ccc(S(=O)(=O)NCC2CCCO2)cc1Cl (stereo unspecified) | 0.0397
COC(=O)C1=C(C)NC(=O)/C1=C\c1cc(C)n(-c2ccccc2C)c1C | -0.534
O=C1NC(c2ccccc2)=C(c2nc3ccccc3s2)C(c2ccc(O)cc2)N1 (stereo unspecified) | -0.302
O=C(Cn1cc(C(=O)C2CC2)c2ccccc21)NCC1CCCO1 (stereo unspecified) | 0.00737
CC1CCCCN1S(=O)(=O)c1ccc2c(c1)CCN2C(=O)CCC(=O)O (stereo unspecified) | -0.0502
COc1ccc(N2C(=O)C3CCCN3C2c2ccccc2Cl)cc1 (stereo unspecified) | 0.523
O=C(CNC(=O)C1CCCCC1)Nc1cc(Cl)cc(Cl)c1 | -0.0705
Cc1ccc(Nc2nnc(SCC(=O)NC3CCCc4ccccc43)s2)cc1 (stereo unspecified) | -0.0123
CCOC(=O)N1CCN(c2cc3[nH]c(=S)[nH]c3cc2F)CC1 | -0.482
CCOC(=O)c1[nH]c(C)c(C(=O)NC2CCCC2)c1C | -0.06
COc1ccc(S(=O)(=O)N(CC(=O)NC2CC2)C2CCCCC2)cc1Cl | 0.306
COc1cccc(C(=O)N2CCN(Cc3ccccc3C(F)(F)F)CC2)c1 | -0.679
CCC1=NN(C(=O)C(=O)Nc2ccc(OC)cc2)C(O)(C(F)(F)F)C1 (stereo unspecified) | 0.332
